# Data published in the supplement of paper PMC8728848.
# Some of the results follow.
# Assays:
# Assay in all cases: glycan array binding signal (z-score within array); higher = stronger binding
# Conditions in all cases: glycan notation: IUPAC condensed, linker removed
# [1] = target: Neu5Ac(a2-3)Gal(b1-4)GlcNAc(b1-3)Gal(b1-4)GlcNAc(b1-3)Gal(b1-4)GlcNAc
# Summary of the method: (§1)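 Columns mapping to the same glycan were averaged after glycan names were converted to IUPAC-condensed notation. The data come from 3228 arrays in the Consortium for Functional Glycomics database, limited to those with an available protein sequence. Binding is reported as a within-array Z-score averaged across arrays of one protein sequence and across linkers.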
# [2] = target: Neu5Ac(a2-3)Gal(b1-4)GlcNAc(b1-3)Gal(b1-4)GlcNAc(b1-3)Gal(b1-4)GlcNAc(b1-2)Man(a1-3)[Neu5Ac(a2-3)Gal(b1-4)GlcNAc(b1-3)Gal(b1-4)GlcNAc(b1-3)Gal(b1-4)GlcNAc(b1-2)Man(a1-6)]GalNAc
# Summary of the method: as §1
# [3] = target: Neu5Ac(a2-3)Gal(b1-4)GlcNAc(b1-3)Gal(b1-4)GlcNAc(b1-3)GalNAc
# Summary of the method: as §1
# [4] = target: Neu5Ac(a2-3)Gal(b1-4)GlcNAc(b1-3)Gal(b1-4)GlcNAc(b1-3)[Neu5Ac(a2-3)Gal(b1-4)GlcNAc(b1-3)Gal(b1-4)GlcNAc(b1-6)]GalNAc
# Summary of the method: as §1
# [5] = target: Neu5Ac(a2-3)Gal(b1-4)GlcNAc(b1-3)Gal(b1-4)GlcNAc(b1-6)[Gal(b1-3)]GalNAc
# Summary of the method: as §1
# [6] = target: Neu5Ac(a2-3)Gal(b1-4)GlcNAc(b1-3)Gal(b1-4)[Fuc(a1-3)]GlcNAc
# Summary of the method: as §1
# [7] = target: Neu5Ac(a2-3)Gal(b1-4)GlcNAc(b1-3)GalNAc
# Summary of the method: as §1
# [8] = target: Neu5Ac(a2-3)Gal(b1-4)GlcNAc(b1-3)[Neu5Ac(a2-3)Gal(b1-4)GlcNAc(b1-6)]GalNAc
# Summary of the method: as §1
# [9] = target: Neu5Ac(a2-3)Gal(b1-4)GlcNAc(b1-6)GalNAc
# Summary of the method: as §1
# [10] = target: Neu5Ac(a2-3)Gal(b1-4)GlcNAc(b1-6)[Gal(b1-3)]GalNAc
# Summary of the method: as §1
# [11] = target: Neu5Ac(a2-3)Gal(b1-4)GlcNAc(b1-6)[Neu5Ac(a2-3)Gal(b1-3)]GalNAc
# Summary of the method: as §1
# [12] = target: Neu5Ac(a2-3)Gal(b1-4)GlcNAc6S
# Summary of the method: as §1
# [13] = target: Neu5Ac(a2-3)Gal(b1-4)[Fuc(a1-3)]GlcNAc
# Summary of the method: as §1
# [14] = target: Neu5Ac(a2-3)Gal(b1-4)[Fuc(a1-3)]GlcNAc(b1-2)Man
# Summary of the method: as §1
# [15] = target: Neu5Ac(a2-3)Gal(b1-4)[Fuc(a1-3)]GlcNAc(b1-3)Gal
# Summary of the method: as §1
# [16] = target: Neu5Ac(a2-3)Gal(b1-4)[Fuc(a1-3)]GlcNAc(b1-3)Gal(b1-4)GlcNAc
# Summary of the method: as §1
# [17] = target: Neu5Ac(a2-3)Gal(b1-4)[Fuc(a1-3)]GlcNAc(b1-3)Gal(b1-4)[Fuc(a1-3)]GlcNAc(b1-3)Gal(b1-4)[Fuc(a1-3)]GlcNAc
# Summary of the method: as §1
# [18] = target: Neu5Ac(a2-3)Gal(b1-4)[Fuc(a1-3)]GlcNAc(b1-3)GalNAc
# Summary of the method: as §1
# [19] = target: Neu5Ac(a2-3)Gal(b1-4)[Fuc(a1-3)]GlcNAc(b1-6)[Gal(b1-3)]GalNAc
# Summary of the method: as §1
# [20] = target: Neu5Ac(a2-3)Gal(b1-4)[Fuc(a1-3)]GlcNAc(b1-6)[Neu5Ac(a2-3)Gal(b1-3)]GalNAc
# Summary of the method: as §1
# [21] = target: Neu5Ac(a2-3)Gal(b1-4)[Fuc(a1-3)]GlcNAc6S
# Summary of the method: as §1
# [22] = target: Neu5Ac(a2-3)Gal6S(b1-4)GlcNAc
# Summary of the method: as §1
# [23] = target: Neu5Ac(a2-3)Gal6S(b1-4)[Fuc(a1-3)]GlcNAc
# Summary of the method: as §1
# [24] = target: Neu5Ac(a2-3)GalNAc
# Summary of the method: as §1
# [25] = target: Neu5Ac(a2-3)GalNAc(b1-4)GlcNAc
# Summary of the method: as §1
# [26] = target: Neu5Ac(a2-3)[GalNAc(b1-4)]Gal(b1-4)Glc
# Summary of the method: as §1
# [27] = target: Neu5Ac(a2-3)[GalNAc(b1-4)]Gal(b1-4)GlcNAc
# Summary of the method: as §1
# [28] = target: Neu5Ac(a2-3)[GalNAc(b1-4)]Gal(b1-4)GlcNAc(b1-3)GalNAc
# Summary of the method: as §1
# [29] = target: Neu5Ac(a2-3)[Neu5Ac(a2-6)]GalNAc
# Summary of the method: as §1
# [30] = target: Neu5Ac(a2-6)Gal
# Summary of the method: as §1
# [31] = target: Neu5Ac(a2-6)Gal(b1-3)GlcNAc(b1-3)[Gal(b1-4)GlcNAc(b1-6)]Gal(b1-4)Glc
# Summary of the method: as §1
# [32] = target: Neu5Ac(a2-6)Gal(b1-4)Glc
# Summary of the method: as §1
# [33] = target: Neu5Ac(a2-6)Gal(b1-4)GlcNAc
# Summary of the method: as §1
# [34] = target: Neu5Ac(a2-6)Gal(b1-4)GlcNAc(b1-2)Man
# Summary of the method: as §1
# [35] = target: Neu5Ac(a2-6)Gal(b1-4)GlcNAc(b1-2)Man(a1-3)Man(b1-4)GlcNAc(b1-4)GlcNAc
# Summary of the method: as §1
# [36] = target: Neu5Ac(a2-6)Gal(b1-4)GlcNAc(b1-2)Man(a1-3)[Gal(b1-4)GlcNAc(b1-2)Man(a1-6)]Man(b1-4)GlcNAc(b1-4)GlcNAc
# Summary of the method: as §1
# [37] = target: Neu5Ac(a2-6)Gal(b1-4)GlcNAc(b1-2)Man(a1-3)[GlcNAc(b1-2)Man(a1-6)]Man(b1-4)GlcNAc(b1-4)GlcNAc
# Summary of the method: as §1
# [38] = target: Neu5Ac(a2-6)Gal(b1-4)GlcNAc(b1-2)Man(a1-3)[GlcNAc(b1-4)][Neu5Ac(a2-6)Gal(b1-4)GlcNAc(b1-2)Man(a1-6)]Man(b1-4)GlcNAc(b1-4)GlcNAc
# Summary of the method: as §1
binder,measurement,setting,value
GS13846A-bth-444-19-444 (Bacteroides thetaiotaomicron) (protein) SCENEFDVSDKADSLISVTVNTLNNQAAYNVGETAQAELWIQRGGLKDASGKVQFVVDPLLLDSLNQEDKTNYELLPENCYEMTNTEFTVDKNELCGYITYHPEKILALSAYNETKYVLPLRLISNDLAINPARNTSFLAFTILEPIVHISNAGVYNINPDLTSTMDIQIGVPFTNKWDILCNLTEDLSLIDEYNQINKVNFTLLPENAYTAPESVTLQEGVSQITASYQLKNNLVPGNYILPIKIGSITASQGGVPNNSLVIDEESNVLFCIVKEGNKINKSGWEVIECSSEHAGNEATYMIDDNESTYWHCKFKNEAGSSVPPFHFIIDMKKEITIAQIDLLNRGDGAANNIKWVEFYASNNNSEWDKIGAGDFNDEGTRATFRYYVKSTKARYLKLIIPEGYGNNCPPAAIRELTVYGLEGNN,glycan array binding signal (z-score),[1],0.067
same,glycan array binding signal (z-score),[2],-0.089
same,glycan array binding signal (z-score),[3],-0.353
same,glycan array binding signal (z-score),[4],-0.336
same,glycan array binding signal (z-score),[5],0.701
same,glycan array binding signal (z-score),[6],-0.159
same,glycan array binding signal (z-score),[7],-0.358
same,glycan array binding signal (z-score),[8],-0.202
same,glycan array binding signal (z-score),[9],0.068
same,glycan array binding signal (z-score),[10],-0.363
same,glycan array binding signal (z-score),[11],-0.359
same,glycan array binding signal (z-score),[12],-0.323
same,glycan array binding signal (z-score),[13],-0.179
same,glycan array binding signal (z-score),[14],-0.335
same,glycan array binding signal (z-score),[15],-0.359
same,glycan array binding signal (z-score),[16],-0.205
same,glycan array binding signal (z-score),[17],-0.316
same,glycan array binding signal (z-score),[18],0.234
same,glycan array binding signal (z-score),[19],1.34
same,glycan array binding signal (z-score),[20],0.385
same,glycan array binding signal (z-score),[21],-0.062
same,glycan array binding signal (z-score),[22],-0.129
same,glycan array binding signal (z-score),[23],-0.421
same,glycan array binding signal (z-score),[24],-0.224
same,glycan array binding signal (z-score),[25],-0.194
same,glycan array binding signal (z-score),[26],-0.277
same,glycan array binding signal (z-score),[27],-0.26
same,glycan array binding signal (z-score),[28],-0.073
same,glycan array binding signal (z-score),[29],-0.182
same,glycan array binding signal (z-score),[30],-0.29
same,glycan array binding signal (z-score),[31],-0.414
same,glycan array binding signal (z-score),[32],-0.183
same,glycan array binding signal (z-score),[33],-0.405
same,glycan array binding signal (z-score),[34],-0.309
same,glycan array binding signal (z-score),[35],-0.287
same,glycan array binding signal (z-score),[36],-0.151
same,glycan array binding signal (z-score),[37],-0.256
same,glycan array binding signal (z-score),[38],-0.297
